# Experimental data published in article PMC6212790.
# Some of the results follow. At the low end of the ranking, values are background and their order means little.
# Biological target: T1, GST-Rok-C97-191 (UniProt O34857)
# T1 sequence: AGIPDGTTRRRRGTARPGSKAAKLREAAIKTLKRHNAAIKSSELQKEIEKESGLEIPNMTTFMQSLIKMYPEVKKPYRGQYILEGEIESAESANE
# Experiment: protein binding microarray;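 also: rank score from −0.5 (least bound) to 0.5 (best bound)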
# Conditions: Rok is a gene silencer of Bacillus subtilis; high values mean tight binding; most listed sequences are background and not binding sites; double strand, one strand shown
row,Sequence,binding signal [E-score]
1,ACCTCTCG,0.00338
2,CGACGTTC,0.00193
3,GTTGAAGA,-0.125
4,AATGCCAC,0.0235
5,AGGTCCAA,-0.283
6,TACAATGA,0.112
7,TGTAAGAA,0.222
8,CCGGGCGC,-0.132
9,TCGTGTAA,0.109
10,AGACATAT,0.164
11,TAATCCGA,0.15
12,CAGCTACA,0.0422
13,ACTTGCAT,0.0108
14,CTGCTCAA,0.0272
15,CATATAAA,0.138
16,GGACGGCA,-0.181
17,TCTGTCAA,-0.116
18,GCGATCGC,-0.164
19,AGTTCACC,0.0316
20,AGAGTGGG,-0.186
21,GACCACTC,0.00158
22,GTCTGTTA,0.0249
23,GGACCGAA,-0.0929
24,GCATCCAA,-0.0621
25,ACTAAACT,0.244

row,Sequence,binding signal [E-score]
1,CTTTCTTA,0.192
2,AAAATTCG,0.192
3,CACCCTCG,-0.185
4,GTCGCGTA,0.147
5,GGGTTGTA,0.0386
6,GAGGACTC,-0.0608
7,CAACGGTA,0.207
8,GCGGTTTA,-0.00762
9,CTAAAGGA,-0.128
10,CATAGGTC,-0.00427
11,ACTTAATA,0.239
12,ATCACGTA,0.097
13,ATGCGAAT,-0.117
14,CAATGAGC,-0.197
15,AACTGGGA,-0.209
16,ACATAGAG,-0.0925
17,CTTCATGC,-0.0422
18,AGGCCCAA,-0.294
19,ACGATTTG,0.0282
20,GTATAATA,0.413
21,AAGTACTC,0.146
22,ATAATTTC,0.36
23,ACGGTGTG,-0.113
24,AATAGGCT,0.0839
25,CCGGATGA,-0.00889

row,Sequence,binding signal [E-score]
1,CCTTTCGC,-0.136
2,GAAGCGTC,-0.188
3,CCGGAGTA,0.00891
4,AAGTCCTA,0.0893
5,AAAGTTGT,0.0601
6,CGCCGCCA,-0.235
7,GGAGAGCC,-0.332
8,CGCGGACA,-0.116
9,CCGTGCAC,-0.158
10,CAAAGCAA,0.102
11,CTAAGGAG,-0.0167
12,CGAATCGA,-0.00685
13,CATGGGAG,-0.152
14,TTCCCCAA,0.0499
15,AAAAGCTC,-0.0186
16,AAGGGGAC,-0.16
17,CGCGCCAG,-0.214
18,GTTGGTTA,0.179
19,ATCTCTTA,0.0317
20,CATCCGCC,-0.204
21,ACAGCAAG,-0.0495
22,AGAGTGAC,-0.024
23,GCTGTCGA,-0.0863
24,ATAGTTCC,0.143
25,CTGGACCA,-0.188

row,Sequence,binding signal [E-score]
1,AAAATGAC,0.0327
2,CACCGCGG,-0.113
3,CACCCAGG,-0.332
4,ATGCAGTG,0.023
5,CGCGATTC,0.0103
6,GAGGATAA,0.123
7,ACACTATA,0.258
8,CTTTTATA,0.236
9,TAGGCCTA,0.177
10,AGACTAGG,-0.00307
11,CCGTTATA,0.119
12,ATCAGGTG,0.162
13,ACAGAACG,0.0639
14,AGCCTCCT,-0.331
15,ACCCGAGC,0.004
16,ACACAGCG,-0.0473
17,CACCAATG,-0.2
18,ACTCTGCG,0.103
19,AGTTCCAG,0.0851
20,GATAAACA,-0.00599
21,TATTGGGA,-0.0798
22,TACATGCA,0.282
23,CTGTTCGA,0.177
24,CGTGGATA,0.0229
25,AAGATGTG,-0.0937

row,Sequence,binding signal [E-score]
1,CGCGATAG,0.188
2,AAGGGGTG,-0.271
3,CATCAGCG,-0.0549
4,GAACACAA,-0.0616
5,AAACGCCC,-0.157
6,CCTGATTC,-0.0645
7,CCATTTTA,0.172
8,AAGAACGA,0.105
9,CTGTAACC,-0.00734
10,AAGACCCA,-0.0967
11,CGACCCCG,-0.315
12,TCCGGCAA,-0.0311
13,CAAGGGAG,-0.169
14,CGAAACAC,0.027
15,AAACAAGA,0.025
16,CTCGGAAG,-0.17
17,AAGTCCCG,-0.22
18,AAACTTAA,0.0956
19,GCGGCCGA,-0.352
20,ATCCAGCA,-0.031
21,GAGAAGCC,-0.251
22,CGCCAAAC,-0.224
23,CTCATATC,0.0444
24,CACTAAAA,0.299
25,CTTGATCC,-0.0474

row,Sequence,binding signal [E-score]
1,CAAGGAAA,-0.191
2,ACTTGCGA,-0.0408
3,ACGTCCTG,-0.0421
4,AATGTTAC,0.108
5,GTCGTGAA,-0.104
6,TCCGTCAA,-0.0899
7,CTCGGAGC,0.0375
8,AAATTCAT,0.155
9,AAGGCCTG,-0.231
10,AATATGCG,0.0732
11,CCGCTGAA,-0.0489
12,GACGCTTA,-0.0575
13,GGAGGCTA,-0.193
14,CCTGGACC,-0.168
15,ATTTGGTA,0.226
16,CAAGGGGA,-0.179
17,CTAAGTAA,0.266
18,AAAGATGA,-0.0439
19,GCCCTCGA,-0.232
20,ACGGGAGA,-0.12
21,CCAAACCC,-0.222
22,GGCCAACA,-0.212
23,GAGTGCAA,0.0161
24,AATAAGCT,0.0671
25,CTTGGCCA,-0.0866

row,Sequence,binding signal [E-score]
1,CGGGACCA,-0.262
2,AGACGACG,-0.128
3,CTCGTCAG,-0.0744
4,ACCCTAGC,0.0226
5,AGTGGCGG,-0.0551
6,GCAATCCC,-0.104
7,CGTTGGTC,-0.247
8,CAACGCCC,-0.225
9,CCAACGTC,-0.222
10,ATTCACCG,-0.181
11,ACTATAGT,0.411
12,GTCTAATA,0.166
13,CTAGCGTA,0.0171
14,AAGTCGCA,-0.0762
15,ACGACGCG,-0.0881
16,ACAACCCA,0.011
17,GTAACTGA,0.203
18,AAGGAGAA,-0.0912
19,AACGTAGG,0.0823
20,ATTTGTTA,0.308
21,CAACACTC,-0.0681
22,CCTCAGAC,-0.179
